Measurements from PubChem BioAssay AID1745853 (National Center for Advancing Translational Sciences (NCATS), 2022).
This is one part of the list. Shown are side measurements of this screen, not its main read-out; they come without a call.

Legend:
Assay in all cases: Primary Screen for Target Class Profiling of Small Molecule Inhibitors of Methyltransferases
[1] = molecular target: Glycine N-methyltransferase (Homo sapiens) (UniProt Q14749); conditions: purified enzyme, MTase-Glo SAH luminescence; measured here: GNMT inhibition; at 40 µM; stronger effect = lower value
Procedure, shortened: (§1)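 Each enzyme was assayed with SAM and its substrate. SAH formation detected by MTase-Glo luminescence; single-point 40 uM screen[…].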

[2] = molecular target: Guanidinoacetate N-methyltransferase (Homo sapiens) (UniProt Q14353); conditions: purified enzyme, MTase-Glo SAH luminescence; measured here: GAMT inhibition; at 40 µM; stronger effect = lower value
Procedure, shortened: as §1

[3] = molecular target: Histamine N-methyltransferase (Homo sapiens) (UniProt P50135); conditions: purified enzyme, MTase-Glo SAH luminescence; measured here: HNMT inhibition; at 40 µM; stronger effect = lower value
Procedure, shortened: as §1

[4] = molecular target: Nicotinamide N-methyltransferase (Homo sapiens) (UniProt P40261); conditions: purified enzyme, MTase-Glo SAH luminescence; measured here: NNMT inhibition; at 40 µM; stronger effect = lower value
Procedure, shortened: as §1

[5] = molecular target: Phenylethanolamine N-methyltransferase (Homo sapiens) (UniProt P11086); conditions: purified enzyme, MTase-Glo SAH luminescence; measured here: PNMT inhibition; at 40 µM; stronger effect = lower value
Procedure, shortened: as §1
% is scaled to controls: 0 for no effect and ±100 for the full control effect.

Row | SMILES | activity change, negative = inhibition [1] [%] | activity change, negative = inhibition [2] [%] | activity change, negative = inhibition [3] [%] | activity change, negative = inhibition [4] [%] | activity change, negative = inhibition [5] [%]
1 | CC(=O)NCCC(=O)N1CCC2(CC1)CN(C(=O)NC(C)C)CCO2 | 0.627 | -4.65 | 0.748 | -0.212 | -0.811
2 | C=C1CCC2C(C)(C)CCCC2(C)C1CC/C(C)=C\CO (stereo unspecified) | -9.79 | -22 | -1.7 | -35.5 | -10.4
3 | CC(C)CCN1CCNC(=O)C1CC(=O)N(Cc1cnn(C)c1)C1CC1 (stereo unspecified) | -4.41 | 1.77 | 0.539 | -0.403 | -4.04
4 | COc1ccc(CNC(=O)C[C@@H]2CCNC[C@@H]2Cc2cc(C(C)(C)C)on2)cc1 | -6.93 | -4.96 | -3.28 | -9.4 | -8.14
5 | CC(C)OCCCn1c(=O)c2ccccc2n2c(SCc3ccc(F)cc3Cl)nnc12 | -3.43 | 0.242 | 6.61 | -15.9 | 2.97
6 | CCc1ccc(N2C(=O)c3cc4sccc4n3CC2(C)C(=O)NC2CCCCCC2)cc1 (stereo unspecified) | 4.92 | -40.9 | 4.91 | 3.77 | -1.54
7 | COc1ccc(-c2cc3c(=O)n(CCNC(=O)c4ccsc4)ccn3n2)cc1 | -15.4 | -8.14 | -6.4 | -17.6 | -9.25
8 | COc1cc(NS(C)(=O)=O)ccc1Nc1c2ccccc2nc2ccccc12 | -20.4 | -2.38 | -26 | -17.9 | -18.2
9 | CCOc1ccc(-c2cc3c(=O)n(CCNC(=O)c4cnccn4)ccn3n2)cc1 | -5.25 | -5.72 | 1.42 | -7.3 | -3.79
10 | CCn1c(N)c(C(=O)NC)c(=O)c2ccc(C#C[C@@](C)(O)COC)nc21 | – | -10.2 | – | -27.4 | -17
11 | C=CCn1c(=O)c2ccc(C(=O)NCC(C)C)cc2n2c(=O)n(CC(N)=O)nc12 | -2.34 | 3.18 | -1.4 | -1.16 | 2.39
12 | Cc1cccc(-c2n[nH]n3c2nc(=O)c2ccc(C(=O)N4CCN(c5ccccc5)CC4)cc23)c1 | -27.8 | -5.57 | -12.5 | -22.7 | -11.4
13 | COc1ccc(-c2cc(C(=O)NCC3CC3)c3c(C4CCNC4)noc3n2)cc1 (stereo unspecified) | -1.04 | -0.933 | -9.25 | -6.9 | -2.09
14 | CC(C)CCNC(=O)C1(C)Cn2nc(C(=O)NCC(C)c3ccccc3)cc2C(=O)N1C (stereo unspecified) | 2.57 | 0 | 5.24 | 6.2 | 2.57
15 | Cc1ccc(Cl)cc1N1C(=O)c2cc(C(C)(C)C)nn2CC1(C)C(=O)NC1CCCCC1 (stereo unspecified) | -6.66 | -2.21 | 1.25 | -1.18 | -6.32
16 | COc1cc(C(CO)C(OC2OC(CO)C(O)C(O)C2O)c2ccc(O)c(OC)c2)ccc1O (stereo unspecified) | 7.26 | 6.32 | 11.1 | -14.2 | 5.65
17 | Cc1cc(C)cc(NC(=O)Cn2nc3n(CCCOC(C)C)c(=O)c4ccccc4n3c2=O)c1 | -0.743 | 4.45 | 1.77 | -2.13 | 2.17
18 | COc1ccc(CNC(=O)[C@H]2CNC[C@H](C(=O)N3CCCC3)C2)c(F)c1F | -6.06 | -3.25 | -2.93 | -6.08 | -10.9
19 | CC(=O)NC1(C)CCCN(Cc2cc(-c3c(C)noc3C)cs2)C1 (stereo unspecified) | -1.86 | 1.11 | -1.35 | -3.64 | -1.22
20 | CC1(C(=O)NCc2ccc(F)cc2)Cn2cnc(C(=O)NC3CC3)c2C(=O)N1C1CC1 (stereo unspecified) | -1.18 | 0 | 4 | 1.6 | -0.027
21 | CN(CC(=O)Nc1cccc(C(F)(F)F)c1)S(=O)(=O)c1ccc2[nH]c3c(c2c1)CCCC3 | -10 | -3.08 | -10 | -14 | -7.69

Row | SMILES | activity change, negative = inhibition [1] [%] | activity change, negative = inhibition [2] [%] | activity change, negative = inhibition [3] [%] | activity change, negative = inhibition [4] [%] | activity change, negative = inhibition [5] [%]
22 | O=C(C1CCCN(c2cnn(Cc3ccccc3)c(=O)c2)C1)N1CCCN(c2ncccn2)CC1 (stereo unspecified) | -2.17 | -1.04 | -5.27 | -7.23 | 0.438
23 | FC(F)c1nc2ccccc2n1-c1nc(N2CCOCC2)nc(N2CCOCC2)n1 | 1.63 | 2.84 | 7.24 | -15.6 | -3.14
24 | CCCNC(=O)N1CCc2nc(N3CCN(C)CC3)sc2C1 | -3.35 | -0.207 | -3.49 | 0.179 | 4.55
25 | CCOc1ccc(-c2ccnc(NC[C@@H]3CCCO3)n2)cc1C(=O)O | -7.43 | -4.45 | -5.72 | -10.3 | -13.4
26 | CCn1cc(CN2CCCC23CCN(c2cc(C)nc4ccccc24)CC3)c(C)n1 | -44.4 | -8.62 | -72.4 | -36.1 | -23.5
27 | COc1ccccc1CN1C(=O)c2cc3ccccc3n2CC1(C)C(=O)NCc1ccccc1 (stereo unspecified) | 2.95 | 1.06 | 5.97 | 1.29 | -1.8
28 | COCCN[C@H]1[C@@H]2OC[C@@H](O2)[C@@H](NCc2cnc3ccccc3c2)[C@@H]1O | -7.3 | -11.2 | -2.73 | -15.9 | 3.01
29 | COCCN1C(=O)c2cc3sccc3n2CC1(C)C(=O)NC1CCCCCC1 (stereo unspecified) | -5 | 2.21 | -6.43 | -13.6 | -6.21
30 | CCn1c(=O)n(CC)c2cc(S(=O)(=O)N3CCN(c4ccc(OC)cc4)CC3)ccc21 | 11.4 | 1.78 | 12.8 | 3.1 | 9.42
31 | Cc1ncoc1C(=O)N1CC[C@@H]2COCCN(Cc3ccncc3)[C@@H]2C1 | -3.01 | -0.916 | 0.417 | -6.16 | -1.43
32 | COC(=O)C1=CN(Cc2cccc(Cl)c2)S(=O)(=O)N=C1C | -2.39 | 0.714 | 2.53 | -0.178 | -5.12
33 | Cc1cc2c(cc3n2CC(C)(C(=O)NC2CCCCC2)N(Cc2ccccc2)C3=O)o1 (stereo unspecified) | -0.386 | 0.315 | -0.18 | -1.86 | -0.802
34 | COc1ccc(CCc2nc(C3CC(=O)N(c4ccc(Cl)cc4)C3)no2)cc1 (stereo unspecified) | -8.12 | -3.8 | -1.51 | -11.8 | 3.02
35 | CC(=O)Nc1ccc(CN2CC3(Cc4ccccc4NC3=O)C2)cc1 | -11.4 | -4.54 | -3.46 | -11.5 | -14.8
36 | CN(C)c1ccnc2sc3c(=O)n(N4CCCCCC4)cnc3c12 | -9.54 | -5.47 | -0.769 | -43.3 | -9.59
37 | CCOc1ccc(CNC(=O)c2cc3n(n2)CC(C)(C(=O)NC2CCCCC2)N(C)C3=O)cc1 (stereo unspecified) | 3.44 | 3.7 | -0.744 | 3.6 | -1.12
38 | O=S(=O)(NCCc1nc2ccccc2[nH]1)c1ccccc1 | -7.92 | 3.05 | 0.896 | 7.35 | -3.59
39 | CN1C(=O)c2cccn2CC1C(=O)NC1CCCC1 (stereo unspecified) | -6.21 | -9.82 | -2.28 | -6.93 | -3.78
40 | CC(C)Cn1c(CNC(=O)OC(C)(C)C)nc2cccnc21 | -4.47 | -1.89 | -2.1 | -6.83 | -6.57
41 | COc1cccc(CSc2nnc3n(C)c(=O)c4ccc(C(=O)NC5CCCC5)cc4n23)c1 | 0.855 | 0.989 | 1.84 | 4.17 | 4.38
42 | Cc1ccc(CNC(=O)CCn2ccc3cc(S(=O)(=O)N4CCCCC4)ccc32)cc1 | 4.5 | 4.53 | 7.28 | 4.48 | 1.58

Row | SMILES | activity change, negative = inhibition [1] [%] | activity change, negative = inhibition [2] [%] | activity change, negative = inhibition [3] [%] | activity change, negative = inhibition [4] [%] | activity change, negative = inhibition [5] [%]
43 | C[C@@H](CC[C@@H]1[C@@]2(C)CCCC(C)(C)C2CC[C@@]1(C)O)CC(=O)O (stereo partly specified) | 1.49 | 4.66 | 12.2 | -9.23 | -0.351
44 | CCOCCCN1C(=O)c2cc3sccc3n2CC1(C)C(=O)NC1CCCCCCC1 (stereo unspecified) | 4.26 | -12.5 | 7.47 | 1.5 | 3.54
45 | CC(C)Oc1ccc(C(=O)N[C@H](CNC(=O)CN(C)C)Cc2ccc(-c3cn4cccc([C@H](C)O)c4n3)cc2)cc1Cl | – | 13.2 | – | -6.91 | 2.26
46 | Cc1ccccc1S(=O)(=O)NCCn1c(CCc2ccccc2)nc2ccccc21 | -6.58 | 3.86 | -6.39 | -11.5 | -0.559
47 | Cc1cc(C)c(NC(=O)Cn2c(=O)oc3cc(S(=O)(=O)N4CCCC4)ccc32)c(C)c1 | -2.03 | 2.86 | 1.75 | 7.48 | -1.31
48 | CC1(C(=O)NC2CCCCCC2)Cn2nc(-c3ccco3)cc2C(=O)N1Cc1cccs1 (stereo unspecified) | -2.01 | 0 | 2.86 | -11.8 | 0.226
49 | CC1CCC2(C(=O)OC3OC(CO)C(O)C(O)C3O)CCC3(C)C(=CCC4C5(C)CC(O)C(O)C(C)(C(=O)O)C5CCC43C)C2C1(C)O (stereo unspecified) | 0 | 0.919 | 2.23 | -12.6 | 4.04
50 | O=C(c1cc2c(cc1F)OC(c1ccc(F)cc1)(c1ccc(Cl)cc1Cl)O2)N1CCOCC1 (stereo unspecified) | -2.58 | -16.9 | 7.65 | -35.4 | -4.29
51 | Clc1nccc2c1ccc1ccccc12 | -42.9 | 9.98 | 1.81 | -8.57 | -0.185
52 | COC1CCC12CCN(C(=O)c1cnc(C)cn1)CC2 (stereo unspecified) | -1.07 | -3.78 | -2.35 | -1.24 | 0.485
53 | COc1ccc(C)cc1NS(=O)(=O)c1ccc2c(c1)[C@H]1C=CC[C@H]1[C@@H](c1cccc(Cl)c1)N2 | -11.8 | -5.77 | -19 | -25.7 | -16.6
54 | Cc1ccc(-c2n[nH]n3c2nc(=O)c2ccc(C(=O)NCc4cccnc4)cc23)cc1 | -9.49 | -0.75 | -6.13 | -2.78 | -6.84
55 | COc1ccc(CN2CC(Oc3ccccc3C(=O)NCc3ccccc3)C2)c(OC)c1 | -13.3 | -8.67 | -23.4 | -37.3 | -12.7
56 | CCCCNC(=O)c1cccc(-c2cc(N3CCN(C)CC3)nc(N)n2)c1 | -3.62 | -3.25 | -63.3 | -7.61 | -3.02
57 | Cc1ccc(C(=O)Cn2nc3n(CCCOC(C)C)c(=O)c4ccccc4n3c2=O)cc1 | 1.68 | 0 | 6.03 | -0.114 | 3.3
58 | CC1(C(=O)NC2CCCCCC2)Cn2nc(-c3ccco3)cc2C(=O)N1Cc1ccccc1Cl (stereo unspecified) | -1.63 | 0 | 1.04 | -0.324 | -1.97
59 | O=C(CCN1CCCCO1)N1CCOC(CCCc2ccccc2)C1 (stereo unspecified) | 1.25 | -3.24 | 2.5 | 1.53 | 3.46
60 | CCCN1C(=O)c2cc(C(=O)NCCOC)nn2CC1(C)C(=O)NC1CCCC1 (stereo unspecified) | 2.81 | 0 | 3.99 | 2.59 | 0.807
61 | Cc1cc(C)n(CC(=O)N2CCC(c3nc(CCOCC4CCCC4)no3)C2)n1 (stereo unspecified) | 1.58 | 2.19 | 2.15 | 0.097 | 4.04
62 | CC(C)CN1C(=O)c2cccn2CC1C(=O)N(C)Cc1cccnc1 (stereo unspecified) | -4.68 | -3.65 | -3.05 | -4.79 | 2.63
